Measurements as given in PubChem BioAssay AID463173 (ICCB-Longwood Screening Facility, Harvard Medical School, 2010).
The campaign covered roughly 52,000 compounds. About 4,300 (8.3%) were called active. Cut-off read from the data, not from the text of the source: active = survival mostly below about 52% (no sharp cut-off); inactive = mostly above about 56%. Some of the results follow.

system: DeltatarO mutant; assay: growth inhibition of S. aureus wild type versus tarO mutant, primary screen, teichoic acid synthesis inhibitors, RN4220, OD600 (AID 463173); settings: OD600, 18 h, hits give low values, screened at 18.75 µg/mL (by protocol)

Compound | survival
Cc1ccc(-n2nc3c(N4CCC(C(=O)NCCc5ccccc5C)CC4)nnc(C)c3c2C)cc1 | inactive: 77%
CCCC(CCC)C(=O)Nc1cccc(-c2nc3cccnc3s2)c1 | inactive: 92%
CCc1ccccc1NC(=O)N1CCC2(CC1)Oc1ccccc1C(=O)N2Cc1ccccc1F | inactive: 83%
CCOc1ccc(C(=O)NCC(c2ccc3c(c2)OCO3)N2CCN(c3ccc(F)cc3)CC2)cc1 (configuration not stated) | inactive: 87%
CC(=O)Nc1ccc(NS(=O)(=O)c2ccc3[nH]c4c(c3c2)CCCCC4)cc1 | inactive: 84%
CCC(=O)Nc1ccc(-c2nn3c(CC)nnc3s2)cc1 | inactive: 100%
CC(C)C(=O)N1c2nc(C(C)C)nn2C2(CCCCC2)[C@@H]2CCCC[C@@H]21 | inactive: 69%
Cc1ccc(Nc2nc3ccccc3c3nnc(C)n23)cc1Cl | inactive: 63%
Cc1cc(C)c2c(=O)cc(CSc3nnc(-c4ccccc4)n3C)[nH]c2c1 | inactive: 95%
COc1cc(-c2nnc(SCC(=O)Oc3ccccc3)o2)cc(OC)c1OC | inactive: 81%
Nc1nncn1C(=O)COc1ccc(Cl)cc1 | inactive: 74%
CC1CN(Cn2[nH]c(=O)ccc2=O)CC(C)O1 (configuration not stated) | inactive: 106%
Cc1ccc(CN2CCN(C3CCN(C(=O)c4ccc(C)cc4)CC3)C(=O)C2=O)cc1 | inactive: 78%
CCOC(=O)c1cnc2cc(-c3ccc(C)cc3)nn2c1C | inactive: 74%
CC(C)(C)c1cc(C(C)(C)C)c2oc(=O)c(-c3nc4ccc(C(=O)O)cc4[nH]3)cc2c1 | inactive: 72%
CCOC(=O)c1ccccc1NC(=O)CSc1cc(C)[nH]c(=O)n1 | inactive: 88%
COc1ccc(Cl)cc1NC(=O)CCN1C(=O)c2ccccc2Sc2ncccc21 | inactive: 68%
CC(=O)c1cccc(NC(=O)CN2C(=O)c3cccnc3Sc3ccccc32)c1 | inactive: 82%
O=C(Nc1ccc(N2C(=O)C=CC2=O)cc1Cl)c1ccco1 | inactive: 100%

Compound | survival
Cc1ccc(C)c(Cn2c(=O)n(Cc3ccco3)c(=O)c3oc4ccccc4c32)c1 | inactive: 97%
CCc1ccc(NC(=O)Cn2c(=O)n(-c3ccccc3)c(=O)c3ccc(C(=O)NCc4ccc5c(c4)OCO5)cc32)cc1 | inactive: 112%
CCc1ccccc1NC(=O)c1sc2nc3n(c(=O)c2c1C)CCC3 | inactive: 75%
COc1cc(CN(C(=O)c2ccc(OC(C)C)cc2)C2CCS(=O)(=O)C2)cc(OC)c1OC (configuration not stated) | inactive: 88%
CCc1ccccc1Nc1ncnc2c1cnn2-c1ccc(Cl)cc1 | inactive: 69%
CSCCC(NS(=O)(=O)c1cccs1)C(=O)Nc1ccc(C)c(Cl)c1 (configuration not stated) | inactive: 74%
CCOc1ccc(CCNC(=O)c2ccc(CS(=O)(=O)c3ccccc3C)o2)cc1OCC | inactive: 61%
CC(=O)c1ccc(NC(=O)CSc2nnc(NC(=O)Nc3ccccc3)s2)cc1 | inactive: 76%
COc1ccc(Cl)cc1NC(=O)c1ncn(-c2ccccc2)n1 | inactive: 53%
CCc1ccc(-c2cc(C)no2)cc1S(=O)(=O)Nc1ccc(C)cn1 | inactive: 55%
Cc1cccc(-c2nnn3c2nc(NCc2ccccc2)c2ccccc23)c1 | inactive: 97%
CNC(=O)C1CCN(Cc2cc3ccccc3n2Cc2cccc(C)c2)CC1 | inactive: 76%
CC(C)CCNC(=O)C1CCN(S(=O)(=O)c2cccc3nsnc23)CC1 | inactive: 94%
Cc1ccccc1OCc1ccc(-c2nc(C#N)c(N3CCN(c4ccccc4)CC3)o2)o1 | inactive: 91%
O=C(NCCCc1nc2ccccc2n1Cc1ccccc1)C1CCCCC1 | inactive: 83%
CCOc1ccc(CNC(=O)c2ccc(NC(=O)N3CCSc4ncccc43)cc2)cc1OC | inactive: 84%
COc1cccc(Cn2c(C)c(CNCc3ccccc3Cl)c(C(=O)O)c2C)c1 | inactive: 77%
CN(C)c1cc2c(cc1NC(=O)c1ccc(F)cc1)n(C)c(=O)n2C | inactive: 104%
CC(=O)Nc1ccc(/C(C)=N/NC2=NCCN2)cc1Br | inactive: 88%

Compound | survival
CC(C)N(Cc1ccccc1)C(=O)CN1C(=O)COc2ccc(S(=O)(=O)N3CCCCCC3)cc21 | inactive: 88%
CCN(C(=O)c1cnc(N2CCOCC2)c2ccccc12)c1cc(C)ccc1C | inactive: 94%
COC(=O)C1C(=O)C2=C(CC1C)Nc1ccccc1NC2c1cc(F)ccc1F (configuration not stated) | inactive: 82%
O=C(O)c1ccc2c(c1)N(Cc1ccc(F)cc1Cl)C(=O)c1ccccc1S2 | inactive: 67%
COc1ccc(CCNC(=O)c2cc(S(=O)(=O)N3CCCC(C)C3)cn2C)cc1OC (configuration not stated) | active: 47%
COc1ccc(NC(=O)CCS(=O)(=O)c2nc(-c3ccc4c(c3)OCO4)cc(C(F)(F)F)n2)c(OC)c1 | inactive: 91%
Cc1cc2ccccc2n2c(SCC(=O)Nc3cccc(C(F)(F)F)c3)nnc12 | inactive: 67%
CCOC(=O)c1ccc(NC(=O)CSc2nccn2Cc2ccc(OC)cc2)cc1 | inactive: 79%
Cc1cc(C)cc(C(=O)Nc2nnc3n2CCS3)c1 | inactive: 77%
CC(=O)c1cccc(NC(=O)c2c(C)nn(-c3ccc(F)cc3)c2-n2cccc2)c1 | inactive: 112%
COC(=O)c1cc(NC(=O)c2ccc3c(c2)N(Cc2cccc(Cl)c2)C(=O)c2ccccc2S3=O)cc(C(=O)OC)c1 (configuration not stated) | inactive: 73%
CCCCCN1C(C(=O)c2ccccc2)=C(NC(C)=O)c2ccccc2S1(=O)=O | inactive: 58%
O=C(CSc1ncc2c(n1)-c1cc(Cl)ccc1N(Cc1ccccc1F)S2(=O)=O)Nc1cccc(C(F)(F)F)c1 | inactive: 73%
CCOc1ccccc1NC(=O)c1cnc(N2CCOCC2)c2ccccc12 | inactive: 80%
COc1ccc(OCc2nc3c4c(-c5ccc(OC)cc5)c(-c5ccc(OC)cc5)oc4ncn3n2)cc1 | inactive: 70%
CNc1oc(-c2ccc(COc3ccc(C)cc3)o2)nc1C#N | inactive: 77%
Cc1cccc(CNC(=O)c2sc3ncnc(N(C)C4CCCCC4)c3c2C)c1 | active: 46%
O=C(C1CC1)N1CCN(c2nc3c(F)cc(F)cc3s2)CC1 | inactive: 122%
Cc1nn(-c2ccccc2)c2nc(C3CC3)cc(C(=O)NCc3ccccc3Cl)c12 | inactive: 55%
